# Measured values: patent US20220117938A1, “COMBINATON THERAPY WITH A DON PRODRUG AND AN IMMUNE CHECKPOINT INHIBITOR” (DRACEN PHARMACEUTICALS, INC., priority 2019, published 2022)
# This continues a long series; more values of the same kind are listed elsewhere.
# Test system: MC-38 tumors
# Assay: Anti-tumor efficacy of Compound 1 in the subcutaneous MC-38 model: schedule comparison (Example 3)
# Format: in vivo, Mus musculus
# Description: Female C57BL/6 mice were inoculated subcutaneously at right flank with MC-38 cells for tumor development. Six days after tumor inoculation, 64 mice with tumor size ranging from 50-100 mm^3 (average tumor size 71 mm^3) were selected and assigned into 8 groups using stratified randomization with 8 mice per group based upon their tumor volumes. The treatments were started from the day of randomization (defined as D0), Group 1 was treated with Vehicle (Tween 80:Ethanol:Saline—5:5:90 v/v/v), S.C. QD*20 days, Group 2 was treated with Compound 1 at 1 mpk S.C. QD*28 days, Group 3 was treated with Compound 1 at 0.5 mpk S.C. QD*28 days, Group 4 was treated with Compound 1 at 1.4 mpk S.C. 5-days ON 2-days OFF×4 cycles, Group 5 was treated with Compound 1 at 0.7 mpk S.C. 5-days ON 2-days OFF×4 cycles, Group 6 was treated with Compound 1 at 3 mpk qd×5, followed by 1 mpk qd×23, S.C. QD, Group 7 was treated with Compound 1 at 1.5 mpk qd×5, followed by 0.5 mpk qd×23, S.C. QD and Group 8 was treated with Compound 1 at 1.4 mpk 10-days ON 4-days OFF×2 cycles, S.C.
# Species: Mus musculus; Strain: C57BL/6; Age: 6-8 weeks; Sex: female; Body weight (at treatment start): 16-20 g.
# The MC-38 tumor cells were maintained in vitro as a monolayer culture in DMEM medium supplemented with 10% heat inactivated fetal bovine serum and 100 μg/mL penicillin streptomycin at 37° C. in an atmosphere of 5% CO2 in air. The tumor cells were routinely subcultured twice weekly by trypsin-EDTA treatment. The cells growing to a confluency around 70%-80% were harvested and counted for tumor inoculation. The cultured MC-38 were harvested, re-suspended in base medium at a density of 1×10^7 cells/mL with viability>90%. Each mouse was inoculated subcutaneously at the right flank with 1×10^6 cells in 0.1 ml base medium for tumor development.
# The treatments were started on day 6 after tumor inoculation when the tumor size reached 50-100 mm^3 (average tumor size 71 mm^3). Each group consisted of 8 tumor-bearing mice. The testing article was administrated to the mice at a dosing volume of 10 mL/Kg according to the predetermined regimen as shown in Table 3-1.
# Tumor sizes were measured three times a week in two dimensions using a caliper, and the volume expressed in mm^3 using the formula: V=0.5 a×b^2 where a and b are the long and short diameters of the tumor, respectively. The tumor sizes were then used for the calculations of both tumor growth inhibition (TGI) and T/C values.
# TGI is calculated for each group using the formula: […]
# TVTreatment_DayN is the average tumor volume of a treatment group on a given day, TVTreatment_Day0 is the average tumor volume of the treatment group on the first day of treatment, TVVehicle_DayN is the average tumor volume of the vehicle control group on a given day, and TVVehicle_Day0 is the average tumor volume of the vehicle group on the first day of treatment.
# The T/C value (in percent) is an indication of antitumor effectiveness, T/C (%)=RTVTreatment/RTVControl×100% (RTVTreatment: the mean RTV of the treatment group; RTVControl: the mean RTV of the vehicle treated group). RTV (relative tumor volume)=TVDayN/TVDay0. TVDayN and TVDay0 is the tumor volume on day N and Day 0 respectively. T/C (%)≤42% is considered as significant antitumor activity and <10% is considered as highly significant antitumor activity by the National Cancer Institute criteria.
# Relative change of body weight (RCBW) of each mouse was calculated according to the following formula: […]
# Animal survival curve: When an individual animal reached to the termination endpoint (TV>2000 mm^3), the mouse was euthanized. The time from treatment initiation to the termination was deemed as its survival time. Survival curve was plotted by Kaplan-Meier method. Median survival time (MST) was calculated for each group. Increase of life span (ILS) was calculated according to the following formula: […]
# ILS (%)>25% is considered as a biologically significant survival benefit. […]
structure (smiles),measurement,setting,value
"CC(=O)N[C@@H](Cc1c[nH]c2ccccc12)C(=O)N[C@@H](CCC(=O)C=[N+]=[N-])C(=O)OC(C)C [Compound 1, Isopropyl (S)-2-((S)-2-acetamido-3-(1H-indol-3-yl)propanamido)-6-diazo-5-oxohexanoate]",Tumor volume (Mean ± SEM),"Day 0, Group 2: 1 mg/kg qdx28, sc",70 ± 5 mm^3
same,Tumor volume (Mean ± SEM),"Day 0, Group 3: 0.5 mg/kg qdx28, sc",71 ± 5 mm^3
same,Tumor volume (Mean ± SEM),"Day 0, Group 4: 1.4 mg/kg 5-days ON 2-days OFF x 4 cycles, sc",71 ± 6 mm^3
same,Tumor volume (Mean ± SEM),"Day 0, Group 5: 0.7 mg/kg 5-days ON 2-days OFF x 4 cycles, sc",72 ± 6 mm^3
same,Tumor volume (Mean ± SEM),"Day 0, Group 6: 3 mpk qdx5 followed by 1 mpk qdx23, sc",72 ± 6 mm^3
same,Tumor volume (Mean ± SEM),"Day 0, Group 7: 1.5 mpk qdx5 followed by 0.5 mpk qdx23, sc",72 ± 6 mm^3
same,Tumor volume (Mean ± SEM),"Day 0, Group 8: 1.4 mg/kg 10-days ON 4-days OFF x 2 cycles, sc",72 ± 6 mm^3
same,Tumor volume (Mean ± SEM),"Day 4, Group 2: 1 mg/kg qdx28, sc",45 ± 5 mm^3
same,Tumor volume (Mean ± SEM),"Day 4, Group 3: 0.5 mg/kg qdx28, sc",58 ± 6 mm^3
same,Tumor volume (Mean ± SEM),"Day 4, Group 4: 1.4 mg/kg 5-days ON 2-days OFF x 4 cycles, sc",51 ± 4 mm^3
same,Tumor volume (Mean ± SEM),"Day 4, Group 5: 0.7 mg/kg 5-days ON 2-days OFF x 4 cycles, sc",59 ± 6 mm^3
same,Tumor volume (Mean ± SEM),"Day 4, Group 6: 3 mpk qdx5 followed by 1 mpk qdx23, sc",48 ± 3 mm^3
same,Tumor volume (Mean ± SEM),"Day 4, Group 7: 1.5 mpk qdx5 followed by 0.5 mpk qdx23, sc",54 ± 3 mm^3
same,Tumor volume (Mean ± SEM),"Day 4, Group 8: 1.4 mg/kg 10-days ON 4-days OFF x 2 cycles, sc",57 ± 6 mm^3
same,Tumor volume (Mean ± SEM),"Day 6, Group 2: 1 mg/kg qdx28, sc",34 ± 4 mm^3
same,Tumor volume (Mean ± SEM),"Day 6, Group 3: 0.5 mg/kg qdx28, sc",39 ± 3 mm^3
same,Tumor volume (Mean ± SEM),"Day 6, Group 4: 1.4 mg/kg 5-days ON 2-days OFF x 4 cycles, sc",45 ± 4 mm^3
same,Tumor volume (Mean ± SEM),"Day 6, Group 5: 0.7 mg/kg 5-days ON 2-days OFF x 4 cycles, sc",48 ± 5 mm^3
same,Tumor volume (Mean ± SEM),"Day 6, Group 6: 3 mpk qdx5 followed by 1 mpk qdx23, sc",29 ± 2 mm^3
same,Tumor volume (Mean ± SEM),"Day 6, Group 7: 1.5 mpk qdx5 followed by 0.5 mpk qdx23, sc",37 ± 3 mm^3
same,Tumor volume (Mean ± SEM),"Day 6, Group 8: 1.4 mg/kg 10-days ON 4-days OFF x 2 cycles, sc",41 ± 4 mm^3
same,Tumor volume (Mean ± SEM),"Day 8, Group 2: 1 mg/kg qdx28, sc",25 ± 2 mm^3
same,Tumor volume (Mean ± SEM),"Day 8, Group 3: 0.5 mg/kg qdx28, sc",43 ± 4 mm^3
same,Tumor volume (Mean ± SEM),"Day 8, Group 4: 1.4 mg/kg 5-days ON 2-days OFF x 4 cycles, sc",30 ± 3 mm^3
same,Tumor volume (Mean ± SEM),"Day 8, Group 5: 0.7 mg/kg 5-days ON 2-days OFF x 4 cycles, sc",40 ± 7 mm^3
same,Tumor volume (Mean ± SEM),"Day 8, Group 6: 3 mpk qdx5 followed by 1 mpk qdx23, sc",31 ± 2 mm^3
same,Tumor volume (Mean ± SEM),"Day 8, Group 7: 1.5 mpk qdx5 followed by 0.5 mpk qdx23, sc",35 ± 3 mm^3
same,Tumor volume (Mean ± SEM),"Day 8, Group 8: 1.4 mg/kg 10-days ON 4-days OFF x 2 cycles, sc",26 ± 2 mm^3
same,Tumor volume (Mean ± SEM),"Day 13, Group 2: 1 mg/kg qdx28, sc, 1 mg/kg",5 + 2 mm^3
same,Tumor volume (Mean ± SEM),"Day 13, Group 3: 0.5 mg/kg qdx28, sc, 0.5 mg/kg",24 + 2 mm^3
same,Tumor volume (Mean ± SEM),"Day 13, Group 4: 1.4 mg/kg 5-days ON 2-days OFF x 4 cycles, sc, 1.4 mg/kg",11 + 3 mm^3
same,Tumor volume (Mean ± SEM),"Day 13, Group 5: 0.7 mg/kg 5-days ON 2-days OFF x 4 cycles, sc, 0.7 mg/kg",13 + 4 mm^3
same,Tumor volume (Mean ± SEM),"Day 13, Group 6: 3 mpk qdx5 followed by 1 mpk qdx23, sc",14 + 3 mm^3
same,Tumor volume (Mean ± SEM),"Day 13, Group 7: 1.5 mpk qdx5 followed by 0.5 mpk qdx23, sc",15 + 3 mm^3
same,Tumor volume (Mean ± SEM),"Day 13, Group 8: 1.4 mg/kg 10-days ON 4-days OFF x 2 cycles, sc, 1.4 mg/kg",17 + 4 mm^3
same,Tumor volume (Mean ± SEM),"Day 41, Group 5: 0.7 mg/kg 5-days ON 2-days OFF x 4 cycles, sc",443 ± 200 mm^3
same,Tumor volume (Mean ± SEM),"Day 41, Group 7: 1.5 mpk qdx5 followed by 0.5 mpk qdx23, sc",1829 ± 275 mm^3
same,Tumor volume (Mean ± SEM),"Day 43, Group 4: 1.4 mg/kg 5-days ON 2-days OFF x 4 cycles, sc",847 ± 249 mm^3
same,Tumor volume (Mean ± SEM),"Day 43, Group 5: 0.7 mg/kg 5-days ON 2-days OFF x 4 cycles, sc",817 ± 381 mm^3
